Measured values as given in PubChem BioAssay (NCATS).
This list was built around the results that the source calls inconclusive (neither active nor inactive); the mix of calls is not that of the screen. For some of these results: No potency is given beside an inconclusive call; the fits are too rough. Some structures have more than one record in an assay (separate samples or runs), and their calls can disagree. The source made the active and inactive calls. The call rests on the fitted dose curve; in most records, active means well fitted curve in the direction sought with a large enough effect; inconclusive means small, poorly fitted or top-dose-only effect, or another doubt; inactive means no such curve, though single readings can be large; an effect the other way counts as inactive or inconclusive.

Key:
[1] = qHTS for Inhibitors of Plasmodium falciparum (DD2) proliferation (AID 504314); further: potency means the concentration at half of the fitted maximal effect; conditions: P. falciparum Dd2 in erythrocytes, SYBR Green growth, 72 h; activity, negative = inhibition: at 6.11 µM (top of the series)
Procedure, shortened: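 Quantitative HTS growth inhibition: SYBR Green I binding to parasite DNA after 72 h drug exposure of infected erythrocytes (0.3% parasitemia, 2.5% hematocrit). Signals normalized per plate to inhibitor and vehicle wells.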

[2] = qHTS for Inhibitors of Plasmodium falciparum (GB4) proliferation (AID 504315); further: nearly all actives have a fitted effect of over 50% in size; further: potency means the concentration at half of the fitted maximal effect;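 on activity change, negative = inhibition: 0% = DMSO vehicle and -100% = 0.29 µM artemisinin control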; conditions: P. falciparum GB4 in erythrocytes, SYBR Green DNA, 72 h; activity change, negative = inhibition: at 6.7 µM (top of the series)
Procedure, shortened: (§1)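 Erythrocytes infected with P. falciparum line (0.3% parasitemia, 2.5% hematocrit final) incubated with compounds 72 h at 37 °C, 5% CO2; SYBR Green lysis buffer added, fluorescence read next day. Normalized to 0.29 uM artemisinin and DMSO.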

[3] = qHTS for Inhibitors of Plasmodium falciparum (7G8) proliferation (AID 504316); further: potency means the concentration at half of the fitted maximal effect; nearly all actives have a fitted effect of over 65% in size; conditions: P. falciparum 7G8 in erythrocytes, SYBR Green DNA, 72 h; activity change, negative = inhibition: at 6.7 µM (top of the series)
Procedure, shortened: as §1

[4] = qHTS for Inhibitors of Plasmodium falciparum (HB3) proliferation (AID 504318); further: nearly all actives have a fitted effect of over 60% in size; further: potency means the concentration at half of the fitted maximal effect;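 on activity change, negative = inhibition: 0% = DMSO vehicle and -100% = artemisinin control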; conditions: P. falciparum HB3 in erythrocytes, SYBR Green DNA, 72 h; activity change, negative = inhibition: at 7.21 µM (top of the series)
Procedure, shortened: as §1

[5] = qHTS for Inhibitors of Plasmodium falciparum (CP250) proliferation (AID 504320); further: potency means the concentration at half of the fitted maximal effect;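 on activity change, negative = inhibition: plate controls were DMSO vehicle for no effect and 0.29 µM artemisinin control for full effect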
Procedure, shortened: as §1

[6] = molecular target: Cytochrome P450 2D6 (Homo sapiens) (UniProt P10635); assay: qHTS Assay for Inhibitors and Substrates of Cytochrome P450 2D6 (AID 891); conditions: recombinant CYP2D6, luciferin-ME EGE luminescence; activity change, negative = inhibition: at 57.1 µM (top of the series);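 further: luciferin methyl ether substrate demethylated by CYP2D6 with NADPH regeneration; top concentration of the series differs between compounds; on the % scale 0 is the no-effect control and ±100 the full control effect; nearly all actives have a fitted effect of over 60% in size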
Procedure, shortened: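 Human CYP2D6 (5 nM) with 30 uM Luciferin-ME EGE (at Km) in 100 mM KPO4, compound preincubated 10 min, then NADPH regeneration system for 60 min at room temperature. Luciferin read by luminescence; normalized to 1.43 uM quinidine.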

[7] = molecular target: Cytochrome P450 2C9 (Homo sapiens) (UniProt P11712); assay: qHTS Assay for Inhibitors and Substrates of Cytochrome P450 2C9 (AID 883); conditions: recombinant CYP2C9, luciferin-H luminescence, 60 min; activity change, negative = inhibition: at 57.1 µM (top of the series); further: potency means the concentration at half of the fitted maximal effect; nearly all actives have a fitted effect of over 60% in size
Procedure, shortened: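 Luminescent read-out of deoxyluciferin hydroxylation, normalized to 57uM sulphaphenazole (AC100). Reaction: 10nM enzyme, 100uM Luciferin-H (equal to KM), 25mM KPO4, 10 min compound preincubation, then 60 min with NADPH regeneration, both at 37C.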
Tags describe the fitted curve by direction and shape.

Sequence of UniProt P10635 (P10635 whole entry, looked up): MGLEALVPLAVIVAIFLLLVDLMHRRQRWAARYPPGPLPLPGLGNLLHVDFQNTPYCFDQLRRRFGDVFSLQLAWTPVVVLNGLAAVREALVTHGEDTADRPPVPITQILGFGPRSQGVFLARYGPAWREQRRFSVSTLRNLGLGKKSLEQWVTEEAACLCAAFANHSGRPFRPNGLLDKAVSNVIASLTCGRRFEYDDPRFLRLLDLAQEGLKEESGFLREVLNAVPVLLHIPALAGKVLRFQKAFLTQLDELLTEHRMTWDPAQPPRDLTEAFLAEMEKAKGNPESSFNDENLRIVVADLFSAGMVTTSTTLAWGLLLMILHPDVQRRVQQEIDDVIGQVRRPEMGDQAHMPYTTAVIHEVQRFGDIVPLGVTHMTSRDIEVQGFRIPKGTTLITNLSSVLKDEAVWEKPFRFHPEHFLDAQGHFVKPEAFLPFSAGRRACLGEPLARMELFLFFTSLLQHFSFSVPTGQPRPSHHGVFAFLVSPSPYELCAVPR
Sequence of UniProt P11712 (P11712 whole entry, looked up): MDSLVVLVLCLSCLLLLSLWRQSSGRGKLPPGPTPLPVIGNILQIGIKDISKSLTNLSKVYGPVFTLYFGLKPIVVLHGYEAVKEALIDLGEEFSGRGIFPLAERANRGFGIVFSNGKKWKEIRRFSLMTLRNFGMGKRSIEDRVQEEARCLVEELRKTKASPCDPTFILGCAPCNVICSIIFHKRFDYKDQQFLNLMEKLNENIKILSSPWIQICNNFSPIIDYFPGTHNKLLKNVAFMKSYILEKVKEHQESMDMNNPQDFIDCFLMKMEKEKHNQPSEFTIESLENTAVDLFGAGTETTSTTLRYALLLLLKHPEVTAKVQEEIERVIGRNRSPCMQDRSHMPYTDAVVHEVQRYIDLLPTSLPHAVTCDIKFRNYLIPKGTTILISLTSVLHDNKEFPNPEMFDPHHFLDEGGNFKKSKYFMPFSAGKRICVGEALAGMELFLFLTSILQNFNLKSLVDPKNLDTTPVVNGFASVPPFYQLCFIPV

Compound	Potency [1]	Potency [2]	Potency [3]	Potency [4]	Potency [5]	activity change, negative = inhibition [6]	Potency [7]
CC(CCN1CCCc2nc(C)c(C)cc21)=NO[C@H](C)c1cn([C@H](CO)Cc2ccccc2)nn1	inconclusive [inhibitor, single point]	inconclusive [inhibitor, partial curve]	active: 1510 nM	inconclusive [inhibitor, partial curve]	inconclusive [inhibitor, partial curve, poor fit]		
CCN1C(=NCc2cc(OC)c(OC)c(OC)c2)NC(c2cccc(F)c2)C(C(=O)OC)=C1C (configuration not stated)	inconclusive [inhibitor, partial curve]	inconclusive [inhibitor, partial curve, poor fit]	active: 849 nM	inconclusive [inhibitor, partial curve, poor fit]	inactive		
COC(=O)C1=C(C)[C@H](O)[C@@H](C)[C@](C)(c2cc(OC)c(C)c(OC)c2COc2ccccc2)O1	inconclusive [inhibitor, single point]	active: 2.13 µM and inactive	inconclusive [inhibitor, single point]	active: 1900 nM	inconclusive [inhibitor, single point]		
CC(C)=CCC1(CC=C(C)C)C(=O)C(C(=O)c2ccccc2)=C2OC(C)(C)CCC2(CC=C(C)C)C1=O (configuration not stated)	inconclusive [inhibitor, single point]	inconclusive [inhibitor, single point]	active: 1690 nM	inconclusive [inhibitor, single point]	inconclusive [inhibitor, partial curve, poor fit]	inactive: 20.1% [at 11.4 µM]	
C=CCN=C1N[C@H](c2ccc(Br)cc2)C(C(=O)OC)=C(C)N1Cc1ccccc1	inconclusive [inhibitor, partial curve]	inconclusive [inhibitor, single point]	inconclusive [inhibitor, single point]	inactive	inconclusive [inhibitor, single point]		
COc1ccccc1C=CC1=CC2(C)CC1(C)C(c1ccccc1OC)CC2=O (configuration not stated)	inconclusive [inhibitor, partial curve]	inconclusive [inhibitor, single point]	active: 1690 nM	active: 1690 nM	inconclusive [inhibitor, single point]		
O=C1CCCC=C1[C@@H](O)CCOC(c1ccccc1)(c1ccccc1)c1ccccc1	inconclusive [inhibitor, partial curve]	active: 1.51 µM	active: 1690 nM	active: 1510 nM	inconclusive [inhibitor, partial curve, poor fit]		active: 794 nM
COC(=O)C1=C(C(=O)OC)[C@@H]2N(C)c3ccc(OC)cc3[C@@]23C[C@@H](C(=O)OC)N(C(=O)NC(C)(C)C)C3=N1	inconclusive [inhibitor, single point]	active: 1.9 µM	inconclusive [inhibitor, single point]	inconclusive [inhibitor, single point]	inconclusive [inhibitor, single point]		
CC(C)=CCN1C(=O)[C@]2(O[C@H](COc3ccccc3)CC3=C2CCC3)c2ccccc21	inconclusive [inhibitor, single point]	inconclusive [inhibitor, single point]	inconclusive [inhibitor, single point]	active: 1690 nM	inconclusive [inhibitor, single point]		
C[C@@H]1CC[C@H]2C(=O)O[C@@H](COc3ccc(C(C)(C)C)cc3)CN2[C@@H]1c1ccc(Br)cc1	inconclusive [inhibitor, partial curve, poor fit]	inconclusive [inhibitor, partial curve]	inconclusive [inhibitor, partial curve]	active: 1690 nM	active: 1510 nM		
